These are yes or no findings as the source states them, for the method shown. Binding seen in cells or lysates may run through a third protein. Some binding calls cover weakened binding; strength is not graded here. For part of these data: Sequences can lack the tags named with a protein. One block for each molecule: values may come before it.
Assays:
[1] = target: T1, GST-OCILRP2e (aa 80-221) (mouse) (UniProt Q9WVF9); test: pull-down; GST or GST-fused protein on Glutathione-Sepharose 4B beads incubated 2 h at 4°C with lysate of EL4 cells stimulated 48 h with CD3/CD28 antibodies; 20 mM Tris-HCl pH 8.0, 200 mM NaCl, 1 mM EDTA, 0.5% Nonidet P-40; western blot with anti-DAP12 or anti-OCILRP2; only the target purified
T1 sequence: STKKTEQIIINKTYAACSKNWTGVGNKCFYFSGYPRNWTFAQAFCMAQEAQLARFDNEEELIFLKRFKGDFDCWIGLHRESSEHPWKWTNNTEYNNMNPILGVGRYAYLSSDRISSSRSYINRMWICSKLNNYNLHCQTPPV

The chains behind the UniProt entries cited, without tags or fusion partners. Residues count along the entry.
UniProt O54885, residues 22-114: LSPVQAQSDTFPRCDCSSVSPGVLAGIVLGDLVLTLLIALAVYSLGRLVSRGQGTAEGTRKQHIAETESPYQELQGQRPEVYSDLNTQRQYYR

[2] = target: T2, GST-OCILRP2i (aa 1-57) (mouse) (UniProt Q9WVF9); test: as above
T2 sequence: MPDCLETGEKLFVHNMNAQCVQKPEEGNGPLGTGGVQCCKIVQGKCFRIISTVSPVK

[3] = target: T3, GST-OCILRP2 (full-length recombinant OCILRP2 protein) (mouse) (UniProt Q9WVF9); test: as above
T3 sequence: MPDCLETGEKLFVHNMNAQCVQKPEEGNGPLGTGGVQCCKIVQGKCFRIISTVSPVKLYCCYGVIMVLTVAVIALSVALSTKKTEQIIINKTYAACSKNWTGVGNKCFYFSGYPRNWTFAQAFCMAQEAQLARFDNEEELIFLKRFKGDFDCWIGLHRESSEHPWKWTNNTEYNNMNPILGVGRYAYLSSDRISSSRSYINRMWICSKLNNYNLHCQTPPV

[4] = target: T4, HA-OCILRP2 (mouse) (UniProt Q9WVF9); test: co-IP; 293T cells co-transfected 48 h with pCDNA3-HA-OCILRP2 and pDsRed-C1-DAP12; precipitated with anti-HA or anti-DAP12 antibody or control IgG, protein A/G, 4°C; western blot
T4 sequence: T3 sequence

[5] = target: GST-DAP12 (UniProt O54885); test: pull-down; GST or GST-fused protein on Glutathione-Sepharose 4B beads incubated 2 h at 4°C with lysate of EL4 cells stimulated 48 h with CD3/CD28 antibodies; 20 mM Tris-HCl pH 8.0, 200 mM NaCl, 1 mM EDTA, 0.5% Nonidet P-40; western blot with anti-DAP12 or anti-OCILRP2; only the target purified
[6] = target: DsRed-DAP12 (UniProt O54885); test: co-IP; 293T cells co-transfected 48 h with pCDNA3-HA-OCILRP2 and pDsRed-C1-DAP12; precipitated with anti-HA or anti-DAP12 antibody or control IgG, protein A/G, 4°C; western blot

binding [1]: no binding | binding [2]: no binding | binding [3]: binds
Molecule: DAP12 (from UniProt O54885 22-114)

binding [4]: binds
Molecule: DsRed-DAP12 (from UniProt O54885 22-114)

binding [5]: binds
B1: OCILRP2 (protein, UniProt Q9WVF9-2 1-221)
chain: T3 sequence

binding [6]: binds
B2: HA-OCILRP2 (protein, UniProt Q9WVF9-2 1-221)
chain: T3 sequence

— paper PMC4239057
